The Kd is the concentration at which binding is half-saturated. The low end stands for a tighter complex, the high end for a looser complex. In general, koff refers to a measure of how fast the partners let go of each other. A lower koff goes with a long-lived complex. Broadly, the kon is the rate constant with which the complex forms. Read a high kon as fast association. A word on the EC50: it is the concentration needed to bring the measured effect to its halfway point. Higher therefore signals a less potent agent.

Experimental findings from patent US20230265183A1 (MABWELL SHANGHAI BIOSCIENCE, published 2023) are described below.

Positions count from the first letter of the chain named.

Assay [1] deals with T1, human Nectin-4 (human, UniProt Q96NY8 32-510).
T1 sequence (looked up): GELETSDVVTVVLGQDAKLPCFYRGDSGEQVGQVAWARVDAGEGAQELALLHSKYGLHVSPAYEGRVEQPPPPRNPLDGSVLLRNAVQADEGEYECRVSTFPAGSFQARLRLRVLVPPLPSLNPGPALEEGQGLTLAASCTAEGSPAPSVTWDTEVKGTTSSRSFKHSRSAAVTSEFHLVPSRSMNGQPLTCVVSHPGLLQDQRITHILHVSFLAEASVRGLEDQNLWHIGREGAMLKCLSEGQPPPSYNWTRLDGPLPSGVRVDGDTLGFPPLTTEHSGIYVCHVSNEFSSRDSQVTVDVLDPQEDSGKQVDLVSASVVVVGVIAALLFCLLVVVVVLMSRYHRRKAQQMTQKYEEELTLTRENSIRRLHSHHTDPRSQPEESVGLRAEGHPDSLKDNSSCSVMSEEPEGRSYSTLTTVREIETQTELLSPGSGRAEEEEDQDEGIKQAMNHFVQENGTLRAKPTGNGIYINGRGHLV
In words: cell-based or functional assay.

The target in another assay is T2, His-tagged human NECTIN4 (human, UniProt Q96NY8 32-349).
T2 construct: Antigen of the BIAcore assay; also called antigen; recombinant NECTIN4 protein; not shown: His tag
T2 sequence: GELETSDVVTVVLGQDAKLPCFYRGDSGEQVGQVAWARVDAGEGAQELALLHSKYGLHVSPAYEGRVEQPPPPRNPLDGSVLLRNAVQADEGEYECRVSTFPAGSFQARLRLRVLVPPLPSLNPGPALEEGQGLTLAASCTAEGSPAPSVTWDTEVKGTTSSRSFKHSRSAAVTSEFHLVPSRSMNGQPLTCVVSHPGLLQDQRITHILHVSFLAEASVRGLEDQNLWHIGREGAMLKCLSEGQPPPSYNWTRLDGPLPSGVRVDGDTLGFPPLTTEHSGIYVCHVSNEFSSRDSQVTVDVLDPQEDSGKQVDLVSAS
In words: SPR (BIAcore S200), antigen on CAP chip, antibody as analyte, 1:1 fit. As for the experimental part:
Interactions between the antibodies and the antigen were measured using a BIAcore instrument S200 from GE. Referring to the instructions provided in Biotin Capture Kit from GE Healthcare, the analytical channel and the control sample channel on CAP sensor chip were first coupled with antigen i.e. His-tagged human NECTIN4, then samples containing antibodies (diluted 3-fold from an initial concentration of 20 nM respectively and solutions of each antibody of 8 concentrations were obtained totally, and the concentration 0.741 nM was set to be repeated) were allowed to flow through both the analytical channel and the sample channel, and the photoreactions upon antibody-antigen binding were measured. Association constant Kon and dissociation constant Koff and affinity constant KD of each antibody were finally obtained by instrument software fitting (1:1 binding mode) analysis.
On the technique in general: SPR reads the build-up and loss of mass on a sensor chip optically.

Assay [2] has as its target T1, human Nectin-4. In words: FACS on BT474 cells. As for the experimental part:
The solutions of different concentrations were added to 384-well plates, 10 µl per well.
BT474 cells (breast cancer cells) expressing Nectin-4 on the cell surface were collected by centrifugation at 100 g at room temperature for 5 minutes, and then the cells were washed with PBS containing 0.5% BSA once and were centrifuged at 100 g at room temperature for 5 minutes. […] After incubation at 4° C. for 1 hour, fluorescently labeled goat anti-human IgG secondary antibody was added. After continued incubation at 4° C. for 1 hour, mean fluorescence readings of the cell populations were analyzed by a flow cytometer.
The experiment results of the binding of engineered humanized molecules of the present disclosure to BT474 cells by FACS assay are shown in panels 3B and 3C in FIG. 3 and Tables 6 and 7.

Assay [3] has as its target T1, human Nectin-4. In words: cell-based or functional assay. The source holds these as a separate data set.

B1: 42D20 hz11 (antibody)
heavy: QVQLQESGPGLVKPSETLSLTCTVSGFSLIDYGVSWIRQPPGKGLEWIGVIWGDGKIYYNSVLKSRVTISKDNSKSQVSLKLSSVTAADTAVYYCAKQGGLLFYAMDYWGQGTLVTVSSASTKGPSVFPLAPSSKSTSGGTAALGCLVLDYFPEPVTVSWNSGALTSGVHTFPAVLQSSGLYSLSSVVTVPSSSLGTQTYICNVNHKPSNTKVDKRV[sequence of human IgG1 Fc with K274L K370L (EU numbers) omitted]
light: DIVMTQSPDSLAVSLGERATINCKSSQSLLNSYSQKNYLAWYQQKPGQSPKLLIYFASTRESGVPDRFSGSGSETDFTLTISSLQAEDLAVYFCQQHYNTPFTFGAGTKLELKRTVAAPSVFIFPPSDEQLKSGTASVVCLLNNFYPREAKVQWKVDNALQSGNSQESVTEQDSKDSTYSLSSTLTLSKADYEKHKVYACEVTHQGLSSPVTKSFNRGEC
notes: Humanized
B1: the “Endocytosis efficiency (%)” value with human Nectin-4 [1] was determined as 52.5%. Moreover, in the assay with His-tagged human NECTIN4, binding was put at a Kd of 0.96 nM, the off-rate (koff) amounted to 0.00115 s⁻¹ and the kon worked out at 1.19e+06 M⁻¹ s⁻¹. The same molecule had an EC50 with human Nectin-4 [2] of 56100 ng/mL.

B2: 42D20 hz11-E (antibody, human IgG1, kappa)
heavy: B1 heavy
light: DIVMTQSPDSLAVSLGERATINCKSSQSLLNSYSQKNYLAWYQQKPGQSPKLLIYFASTRESGVPDRFSGSGSETDFTLTISSLQAEDLAVYFCQQHYNTPFTFGAGTKLELKRRTVAAPSVFIFPPSDEQLKSGTASVVCLLNNFYPREAKVQWKVDNALQSGNSQESVTEQDSKDSTYSLSSTLTLSKADYEKHKVYACEVTHQGLSSPVTKSFNRGEC
modifications: vcMMAE conjugated to the TECP-reduced antibody; residues not stated; DAR 4.0±1
For B2, in the assay with human Nectin-4 [3], the “EC50 (ng/ml), inhibition of proliferation of BT474 cells” value was determined as 4.41 ng/mL and the “Percentage of cell killing at the highest concentration” value was found to be 31.8%.

B3: 42D20 hz13-E (antibody, human IgG1, kappa)
heavy: B1 heavy
light: B2 light with S32T
modifications: vcMMAE conjugated to the TECP-reduced antibody; residues not stated; DAR 4.0±1
Regarding B3, in the assay with human Nectin-4 [3], the “EC50 (ng/ml), inhibition of proliferation of BT474 cells” value was 4.37 ng/mL and the “Percentage of cell killing at the highest concentration” value was 32.1%.

B4: 42D20 hz13 (antibody)
heavy: B1 heavy
light: B1 light with S32T
notes: Humanized
Regarding B4, the “Endocytosis efficiency (%)” value with human Nectin-4 [1] stood at 53.8%. In the assay with His-tagged human NECTIN4, this molecule showed a Kd of 0.904 nM, a koff of 0.00108 s⁻¹ and a kon of 1.19e+06 M⁻¹ s⁻¹.
